Laboratory results published in the supplement of paper PMC3334620.
The full ranking holds about 33,000 sequences; the median of “E-score (-0.5 to 0.5)” is about -0.043, and the highest 2% start at about 0.37. Some of the results follow.

molecular target: T1, Upc2 (UniProt Q12151); test: PBM E-score (8-mer binding enrichment) (E-score (-0.5 to 0.5)); higher = stronger / more preferred TF binding; most listed sequences are background and not binding sites; settings: protein concentration: 200 nM; construct: GST-full length
T1 sequence: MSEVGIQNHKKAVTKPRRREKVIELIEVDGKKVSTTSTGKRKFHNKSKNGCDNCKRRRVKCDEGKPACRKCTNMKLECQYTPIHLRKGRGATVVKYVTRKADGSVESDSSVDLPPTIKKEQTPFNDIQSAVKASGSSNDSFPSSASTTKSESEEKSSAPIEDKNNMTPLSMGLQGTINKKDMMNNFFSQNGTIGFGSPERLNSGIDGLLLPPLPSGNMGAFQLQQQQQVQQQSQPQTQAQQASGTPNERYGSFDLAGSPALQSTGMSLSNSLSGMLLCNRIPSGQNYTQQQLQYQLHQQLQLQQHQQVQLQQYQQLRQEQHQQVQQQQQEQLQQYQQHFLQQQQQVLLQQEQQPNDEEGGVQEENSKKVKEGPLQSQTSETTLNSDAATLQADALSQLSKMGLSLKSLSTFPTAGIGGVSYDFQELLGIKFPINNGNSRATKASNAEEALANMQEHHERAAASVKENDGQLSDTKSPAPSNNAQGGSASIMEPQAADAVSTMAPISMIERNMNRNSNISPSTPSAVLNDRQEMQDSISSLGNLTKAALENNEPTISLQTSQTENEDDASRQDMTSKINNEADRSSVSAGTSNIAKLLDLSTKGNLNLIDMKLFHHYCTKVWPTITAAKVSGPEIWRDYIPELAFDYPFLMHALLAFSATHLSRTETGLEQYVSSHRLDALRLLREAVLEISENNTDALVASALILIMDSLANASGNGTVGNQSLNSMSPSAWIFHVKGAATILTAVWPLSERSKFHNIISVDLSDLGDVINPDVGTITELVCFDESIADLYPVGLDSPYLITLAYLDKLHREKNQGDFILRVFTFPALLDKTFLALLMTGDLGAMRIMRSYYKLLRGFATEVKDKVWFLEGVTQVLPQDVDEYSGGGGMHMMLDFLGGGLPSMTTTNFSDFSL
Procedure, shortened: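 The E-score, a modified Wilcoxon-Mann-Whitney statistic, was computed by the Universal PBM Analysis Suite for every ungapped eight-base word pooled with its reverse complement. Scans behind it were normalised with masliner after bound GST-tagged yeast transcription factors were detected with fluorescent anti-GST. The proteins, at about 100-200 nM, had been applied to universal all-10-mer Agilent arrays made double-stranded by primer extension.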

Sequence | PBM E-score
CGAACACG | 0.19
GGCTTGGA | -0.151
CCGATGCG | -0.034
CGGTACGA | 0.474
GATGGTAA | 0.0128
CGACGTCG | 0.262
GACAGAGA | 0.0558
GATTATCA | -0.108
AGTTGGCG | -0.0259
CGAAGTCG | 0.253
ACCATAGG | -0.116
GAGTTAGA | -0.202
AATAAAAA | 0.0789
CGCGTTTA | 0.415
AAGGAGAC | -0.286
AGGTAGCA | -0.204
GGTAATAA | 0.127
AGCAATAT | -0.0978
AGAGTCAA | -0.308
CTAATTAC | 0.0177
CGAAGCCG | -0.0199
ACATGCTA | -0.235
CATGGGAA | -0.0246
ATGTACGG | 0.373
CTTGTGGA | -0.291

Sequence | PBM E-score
CTTCCTGC | -0.402
CAGTGCTA | -0.0362
AAATTAAG | -0.0662
CTATAACC | 0.157
CCATGCGG | -0.196
AGTTATTA | 0.0498
AGCCTGTG | -0.207
ATCTCTAC | -0.00014
CACTGCCG | -0.093
GACTTTAA | -0.0609
GTCATGCA | -0.237
CCCCCACG | -0.275
ACATCGGA | 0.18
AAAATACA | 0.00883
CGAATAGC | 0.213
GAAGGGCA | -0.21
CAGTCACC | -0.265
ACCTTGTG | -0.0669
ATAACAAA | -0.00968
ACAACTTA | -0.00056
AGACAGGG | -0.226
GTCCGTTA | 0.206
AAGTAGCA | -0.121
CCTGTCAG | -0.255
ACTGCGCC | -0.147

Sequence | PBM E-score
ATGGAACC | -0.133
ACGGGTCT | 0.0102
AGGATTTC | -0.151
ATAATGCC | -0.121
TACTCTGA | -0.0377
CATTTCCC | -0.0794
CGTCCTAA | -0.121
GCGTGCAC | -0.0519
CGCGTTAC | 0.195
GACCTAGA | -0.0861
CATAACGG | -0.244
GTTAAAAC | 0.195
TTCTAAAA | 0.0341
AAGATGCC | 0.00959
CTCCAAAG | -0.0116
AGGGGAAC | -0.0501
ACTTTAGC | -0.00056
CCTACTCG | 0.058
CATAAACC | -0.075
AGGTATGG | -0.119
ATGTCTAC | 0.021
AAAAAACT | 0.028
GATACATC | -0.00058
ATGTTGGA | 0.0262
GCTTTCCA | -0.167

Sequence | PBM E-score
GGTTTTCA | 0.133
ATGTCGGG | -0.0783
CAGATCGA | -0.0705
AGGCCGAG | -0.156
TGGCTGAA | -0.197
GCACGAAC | 0.25
CCATCTAA | -0.123
GGAATCAC | -0.101
AGAGCACG | -0.0743
AACACTAA | 0.00496
AACAACTG | -0.191
GGAAATGA | -0.0982
GATAAGGA | -0.11
AATCACGT | 0.221
CGCTAGCA | -0.159
AGCCATGC | -0.243
AGATGGGG | -0.442
AACTTAGA | 0.00735
ACGAGCGT | 0.386
CGTCTGGA | -0.122
AGCTCACA | -0.0816
CACTAGAC | -0.107
ACTGCTAA | -0.233
ATAGTGCA | 0.0852
GGATCCTA | -0.011

Sequence | PBM E-score
AGCTTTAT | -0.0666
GACATTGA | 0.107
AAATAGCA | -0.186
CTCGCGGA | -0.0694
CCATCCAG | -0.251
ATTTCCAA | -0.00535
GATGCAGA | -0.192
CTAACGAG | 0.343
CCTGAACG | 0.394
CCAACCGA | 0.188
AGGCCCCA | -0.0988
ACCCCTAA | -0.147
ACAAAGGT | -0.035
ACAAACGT | 0.0906
ACACACAA | -0.019
CGAGCGCC | 0.199
CGAGGACC | 0.25
AGCTGAGG | -0.174
CCGGTTCG | 0.0888
GGTTCCAC | -0.202
CGCCCGGA | -0.196
CACTGCAA | 0.034
CCATAAGG | -0.209
TAAGGTCA | -0.264
AATCGGCG | -0.0419

Sequence | PBM E-score
ACGTCGCT | 0.182
ACGTAGAA | 0.167
TGAATCAA | 0.0171
ATCATCTC | -0.0541
GTTCAACA | 0.0945
AAACACCA | -0.157
ACGGCCCA | 0.147
CAGTCTAG | -0.0815
AGTTTCCG | 0.178
ATTGGGCA | -0.212
CTAGGTCA | -0.214
ATCGCTGG | -0.199
CCCATCAA | 0.0682
TGCTGCCA | -0.146
CACCTTCC | -0.0971
ATTCCACA | 0.0345
AAAGTCTA | -0.119
GAGAACAA | 0.113
ACTGACGC | -0.123
AGGACTTG | -0.287
GCGAAGGA | -0.00978
GTATAGGA | 0.341
GCCCCAGC | -0.192
AAGTTCCC | -0.169
AGTTTGAA | -0.0634

Sequence | PBM E-score
CTCTCAGC | -0.195
CCCGCTCG | 0.125
ACGCAGAA | 0.108
ACAATTGA | 0.102
GTTTAAGA | 0.288
ACCGCAGC | -0.134
ATACCAGG | -0.113
AGATTAAC | 0.11
CCACGGGC | -0.222
CACACGGA | -0.111
GGGCTACC | -0.258
CTGCGACA | 0.00769
ATAGTACG | 0.221
CAATGATC | -0.0458
ATTGGACA | -0.0219
AAGCCAAG | -0.233
CATCGATG | -0.0722
ATGTAGAC | -0.248
ATAGTTAG | -0.0248
TAGGATGA | 0.038
GTATTGTA | 0.216
CTCAAGAG | -0.245
